The campaign covered roughly 110,000 compounds. About 230 (0.21%) showed an effect of 50% or more. Some of the results follow.
Molecular target: DPAP1 (Plasmodium falciparum, UniProt Q8IIJ9)
Test: primary screen, percent inhibition; read by cleavage of a fluorogenic dipeptide substrate; higher = more effect of the substance
Set-up: species or system P. falciparum D10 trophozoite lysates; single well
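Further: 30 min substrate incubation versus DMSO and 10 µM JCP410 controls.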

Sequence of DPAP1 (Q8IIJ9 whole entry, looked up): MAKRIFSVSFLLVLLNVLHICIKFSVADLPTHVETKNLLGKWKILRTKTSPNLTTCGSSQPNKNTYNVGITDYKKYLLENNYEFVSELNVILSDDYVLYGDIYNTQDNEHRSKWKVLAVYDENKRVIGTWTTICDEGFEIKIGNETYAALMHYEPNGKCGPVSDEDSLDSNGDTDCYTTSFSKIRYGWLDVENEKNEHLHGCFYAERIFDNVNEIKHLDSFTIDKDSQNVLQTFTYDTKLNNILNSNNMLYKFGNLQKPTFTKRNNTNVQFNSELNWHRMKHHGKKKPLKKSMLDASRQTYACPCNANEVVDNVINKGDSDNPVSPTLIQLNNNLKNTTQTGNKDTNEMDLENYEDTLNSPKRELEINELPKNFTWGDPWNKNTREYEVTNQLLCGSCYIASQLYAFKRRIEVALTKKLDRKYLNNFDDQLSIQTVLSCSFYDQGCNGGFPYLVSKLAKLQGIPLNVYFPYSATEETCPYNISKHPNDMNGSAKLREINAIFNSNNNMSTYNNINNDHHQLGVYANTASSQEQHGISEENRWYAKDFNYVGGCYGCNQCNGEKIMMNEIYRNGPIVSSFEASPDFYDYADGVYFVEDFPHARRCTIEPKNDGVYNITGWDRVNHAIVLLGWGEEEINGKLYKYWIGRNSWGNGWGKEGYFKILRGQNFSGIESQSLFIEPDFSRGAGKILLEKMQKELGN

| Compound | % Inhibition @ 10 uM |
| --- | --- |
| N=C(NOC(=O)C1CCCCC1)c1ccccc1 | 3.59% |
| CC1(O)c2ccccc2C(=O)N1Cc1ccccc1 (stereo not shown) | -0.467% |
| CC1=C(C(=O)OC2CCCC2)C(c2ccc(Br)cc2)CC(=O)N1 (stereo not shown) | 4.78% |
| O=C(Nc1ccc(S(=O)(=O)N2CCc3ccccc32)cc1)C(F)(F)F | 1.37% |
| CCSC1=C(C#N)C(=O)NC(c2ccc(OC)cc2OC)S1 (stereo not shown) | 4.93% |
| N#CCNC(=O)[C@H](Cc1c(F)cccc1F)NC(=O)c1ccc(-c2ccccc2Cl)cc1 | -3.48% |
| Cc1cccc(CNCC2CCCO2)c1 (stereo not shown) | -3.16% |
| Cc1cccc(-n2ncc3c(N4CCN(Cc5ccccc5)CC4)ncnc32)c1 | 2.56% |
| CCOc1ccc(CCNC(=O)COCc2cc(-c3cccs3)on2)cc1 | -1.58% |
| N#CCNC(=O)[C@@H](CC(=O)N1CCOCC1)CC1CCCCC1 | -1.83% |
| CN(CC(=O)Nc1cccc(Cl)c1)S(=O)(=O)c1ccc(F)cc1 | -10.4% |
| Cc1ccc(N2C(=O)NC(=O)/C(=C/Nc3cccc(C(=O)O)c3)C2=O)cc1 | 4.32% |
| CCn1cc(CNC(=O)c2cc(-c3cc(OC)ccc3OC)nc3ccccc23)c(C)n1 | 3.94% |
| COc1ccc(C2C(C#N)=C(N)OC3=C2C(=O)CC(c2ccccc2)C3)cc1OC (stereo not shown) | 5.58% |
| Cc1cc(NCc2ccco2)nc2cc(O)ccc12 | 5.53% |
| COc1ccc2c(c1)C(C)=CC(C)(C)N2C(=O)CN1C(=O)CCC1=O | 4.74% |
| C=CCNC(=O)/C(=C/c1ccc(C(C)C)cc1)NC(=O)c1ccccc1 | 3.66% |
| Cc1cccc(NC(=O)COc2cc(Cl)ccc2Cl)c1 | -14.3% |
| N#CC1=C(N)Oc2c(oc(CO)cc2=O)C1c1ccc(Oc2ccccc2)c(F)c1 (stereo not shown) | 1.76% |
| CCc1nn2cc(-c3ccccc3)nc2s1 | 6.05% |
| O=C(Nc1ccc(Oc2ccc(NC(=O)c3cnccn3)cc2)cc1)c1cnccn1 | 0.722% |
| Cc1ccccc1-c1noc(-c2nnn(-c3ccccc3C(F)(F)F)c2N)n1 | 2.71% |

| Compound | % Inhibition @ 10 uM |
| --- | --- |
| CN(C)CCCN(CCCN(C)C)Cc1ccc(C(F)(F)F)cc1 | -0.0494% |
| COCC(=O)Nc1nc2nc(C)cc(C)n2n1 | -1.31% |
| Cc1nn(-c2ccccc2)c(Cl)c1C1C(C#N)=C(N)Oc2c1c(=O)oc1ccccc21 (stereo not shown) | 13.5% |
| O=C1NC(=O)/C(=C\c2ccc(N3CCOCC3)cc2)S1 | -0.999% |
| Cc1cc(NC(=O)CSc2nc3nccnc3c(=O)n2CCc2c[nH]c3ccccc23)[nH]n1 | 1.1% |
| CCCCSC1=C(C#N)C(=O)NC(CO)S1 (stereo not shown) | 3.35% |
| CCCCN(C)C(=O)Cn1cc2c(n1)-c1c(oc(C(=O)N3CCCC3)c1C)CC2 | -1.38% |
| C=Cc1ccc(CSc2nnc(C)n3c2cc2sccc23)cc1 | -1.09% |
| CCOc1ccc(N2CC(C(N)=O)CC2=O)cc1 (stereo not shown) | 7.2% |
| O=[N+]([O-])c1cc(-c2n[nH]c(O)c2C2=NCCC2)c(Cl)cc1Cl | 4.9% |
| Cc1ccc(N2C(=O)c3ccccc3NC2c2cccc(O)c2)cc1 (stereo not shown) | -7.02% |
| COc1ccc(-c2cc(C3CC3)nc3sc(C(=O)O)c(N)c23)cc1 | 33.3% |
| Cn1cnc2c(N3CCCCC3)nccc21 | -2.44% |
| OCC1CCCN(Cc2cccc(Cl)c2Cl)C1 (stereo not shown) | -1.72% |
| Nc1nc(-c2ccccc2O)cs1 | -3.53% |
| CC(Sc1nc(N)cc(N)n1)C(=O)Nc1ccccc1 (stereo not shown) | -5.26% |
| CC1=C(C#N)C(C(F)(F)F)(C(F)(F)F)NC(CCc2ccccc2)=N1 | 5.12% |
| Cc1c(Cc2c(C)n(CCO)c(=O)n(C)c2=O)c(=O)n(C)c(=O)n1CCO | -1.96% |
| COc1ccc(C2C(C#N)=C(N)Oc3c2c(C)nn3-c2ccc(Br)cc2)cc1 (stereo not shown) | -6.86% |
| COc1cccc(C(=O)Nc2ccccc2C(F)(F)F)c1 | -2.22% |
| CN1CCN(C(=O)NCC23CC4CC(CC(C4)C2)C3)CC1 | -1.81% |
| CCc1ccc(/C=c2\sc3nc(-c4ccccc4)nn3c2=O)cc1 | 0.222% |

| Compound | % Inhibition @ 10 uM |
| --- | --- |
| O=C(Cc1noc2ccccc12)NCCc1ccc(Cl)cc1 | 3.44% |
| Cc1cc(O)nc(SCC(=O)Nc2cccc(C(F)(F)F)c2)n1 | -2.83% |
| CC(=O)N1c2ccccc2C2OCCC2C1c1ccco1 (stereo not shown) | 17.4% |
| CCOc1ccccc1N1CCN(S(=O)(=O)c2cc(Cl)ccc2Cl)CC1 | -5.14% |
| O=C1/C(=C\Nc2ccccc2)c2ccccc2C(=O)N1c1ccccc1 | -4.06% |
| COc1ccc(Br)c(C(=O)Nc2c(C)nc3ncnn3c2O)c1 | 1.43% |
| CCOc1ccccc1C1CC(=O)NC(C)=C1C(=O)OCC(C)C (stereo not shown) | -0.396% |
| COC(=O)c1ccc(OCC(O)Cn2c[n+](C)c3cc(C)c(C)cc32)cc1 (stereo not shown) | 3.47% |
| COC(=O)c1cc2occc2n1CC(=O)N(C)C1CCCCC1 | -2.18% |
| Sc1nnc(-c2ccncc2)n1Cc1ccco1 | 0.238% |
| COC(=O)CSc1nc(-c2ccc(Br)cc2)cc(-c2cccs2)c1C#N | 1.42% |
| CCOc1cccc2cc(-c3csc(NC(=O)CCC(=O)O)n3)c(=O)oc12 | -0.326% |
| N=C1/C(=C\c2coc3ccccc3c2=O)C(=O)N=C2SC(c3ccccc3F)=NN12 | -5.76% |
| Cc1ccc(CNC(=O)c2ccc(CS(=O)(=O)Cc3ccccc3C)o2)cc1 | -2.01% |
| CCOC(=O)C1=C(C)N=c2s/c(=C\c3ccccc3)c(=O)n2C1c1ccc(C)cc1 (stereo not shown) | -3.44% |
| CC1=C(C(=O)Nc2ccccc2C)C(c2ccc(Cl)cc2)n2nc(CCCO)nc2N1 (stereo not shown) | -4.33% |
| CCOc1ccccc1N1CCN(Cc2[nH]cnc2C)CC1 | 0.0792% |
| Cc1nc2c(C(=O)NCc3ccccc3Cl)cnn2c(O)c1Cc1ccccc1F | 16.3% |
| Cc1cc(=O)n(CC(=O)NCCc2ccccc2)c2c1c(C)nn2-c1cccc(F)c1 | 4.81% |
| CCCC(=O)NC(C)c1nc2ccccc2n1Cc1ccc(C)cc1 (stereo not shown) | -2.28% |

Source: article PMC6919601, “Identification of Plasmodium dipeptidyl aminopeptidase allosteric inhibitors by high throughput screening” (PLoS ONE, 2019)
